From the RNAGym collection of RNA variant scans (doi:10.1093/nar/gkz1192) come the findings set out here.

B1: CPEB3 Ribozyme (parent)
chain: UAACAGGGGGCCACAGCAGAAGCGUUCACGUCGCAGCCCCUGUCAGAUUCUGGUGAAUCUGCGAAUUCUGCUGUAUAUCUC

Read counts are not given, so values of variants with three or more changes are uncertain.

Variants of B1 are the subject of the data set. Nature of the data set: self-cleavage, relative activity (ratio to wild type); higher = more cleavage; in vitro, sequencing. Put shortly:
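Barcoded CPEB3 ribozyme mutants, produced by rounds of error-prone PCR, self-cleaved while being transcribed with T7 RNA polymerase for 5 hours at 37°C and during a subsequent 15 min DNase I step before EDTA was added. Sequencing of template-switched cDNA on Illumina gave cleaved and total reads, and DNA sequencing assigned barcodes to variants. Each variant's relative activity is its cleaved/total read fraction divided by the unmutated ribozyme's fraction, averaged across three batches. A variant needed a minimum of 5 reads.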
Regarding C12U A18G A21G, the self-cleavage was determined as 0.32. The result for C12A A18G U49A U69C reads 0.85; that for A13C A35G A56U A57G U58A U74C, 0.78; that for A13G A45U U67A U72C, 0.11. The result for A13G A21U U80A reads 0.6; that for A13G A28G A47G U49A U60C, 0.13; that for A13C A21G U43C U60C U80A, 0.02. As for A13G A28G U54C A65G U67C U72A C79U, the self-cleavage stood at 0. The result for C12U U49C A64G reads 0.82.

Consider A13G A20G A75G, for which the self-cleavage worked out at 0.54. The value for A13G A35G U48C A77U was 0.55; that for A13C U43A G53A C68A was 0.53; that for A13G C32A A45G U51C was 0.16. The value for A13G A35U U41A U54A A65G was 0.17. The value for C12U A20U U49C U80C was 0.07. With A13G C27U A28U U41A U43C U72C, the self-cleavage was determined as 0.22.

For A13C A15U A65G, the self-cleavage amounted to 0.33.

With C12U U51A U80C, the self-cleavage amounted to 1.2. The value for A13G A45U U51C U54C U74C U78C was 0.25; that for A13C A18U G22A A35G A45G U49C was 0.05. The result for A13G A28G U58G reads 0.09. The result for C12U U51C A56U A57G G70U reads 0.42; that for A13G C23G U58C G70A, 0.07.

Turning to A13G A18G C23A A45G A77G, the self-cleavage is 0.29.

Regarding A13G C23U G52C U54C, the self-cleavage is 0.2. The result for A13G C23A U31A A45U A77U reads 0.1. The value for C12U G24A U26C A28G U60A was 0.22; that for A13C U51A C81G was 1.19; that for C12U A18G C29G was 0.7. On to A13G A21C C62U, for which the self-cleavage was 0.24. The result for C12U U25C U41C U78C reads 0.23. The result for C12U A21G A28U reads 0.9; that for C12G U25C U60A U66C, 0.14; that for C12U U25C A28U U48A, 0.05. The value for C12U A56U U60C U67C was 0.31; that for A13G A45G U48C U54C U67C was 0.24. In the case of C12U U26A G61A, the self-cleavage worked out at 0.87. The value for A13C U31C U58C U60A was 0.14; that for A13C A20G G22A A28U U43C U54C U72G was 0.1.

For A13G A15U U60A U76C, the self-cleavage was 0.19.

As for A13G A28G G33A C38A A64G U80A, the self-cleavage came to 0.06. The result for C12U G24C A35G A45G A65G U67C reads 0.12; that for C12U U49C U67C, 0.38. The value for C12U A20U C39U U74C was 0.46; that for A13G C32U C37A U51A U80C was 0.21. Take C12A U41A A57G U80A: the self-cleavage stood at 0.31. The value for A13G C23U U26C A57G was 0.07.

For the variant A13G C34U U41C U58C U60C, the self-cleavage turned out to be 0.24. With A13G A18U U51C U60A, the self-cleavage worked out at 0.1. A13C C59A A65G: the self-cleavage turned out to be 0.22.

For C12U A28G U60C, the self-cleavage came to 0.28. The result for A13C A35G U43C U76A reads 1.26; that for A13G A15G C32U U43C A57G A65G, 0.05.

In the case of A13G A35U U41C A64U, the self-cleavage is 0.17. With A13G A28U G42A U49C A56G U67C U78C, the self-cleavage came out at 0.05. The result for C12U A13G C27G A47G C62G U74C reads 0.09.

Turning to C12U A15G U60C, the self-cleavage turned out to be 0.18.

With C12G U26C U41A U48C, the self-cleavage amounted to 0.21. For A13G A20G A57G A65G U69A, the self-cleavage was 0.17.

As to C12U A15C A35G U51C, the self-cleavage worked out at 0.67.

On to A13C C14U U25C U67C C68U, for which the self-cleavage worked out at 0.22. Regarding A13G A35G A77G, the self-cleavage came to 0.84. Consider C12A U26A U49G, for which the self-cleavage worked out at 0.39. The result for A13C A15G A45G reads 0.71; that for A13G A45G U51A A77G, 0.35; that for A13C A21G C29U U51G U69A, 0.01. The value for A13G A20G U25C G33C was 0.24; that for A13G A20G U26A A56U U69C was 0.06.

Regarding C12U A28G G53A U69C U72C, the self-cleavage was 0.31. The result for A13C A20G U78C reads 1.03; that for C12G A21G A28G C29A U41C U72A, 0.02.

On to C12A U26C U31G U43A U49C U54C A64G, for which the self-cleavage was 0.04. The result for A13G A15U A28G U60C U67C U72G A75U reads 0.03. The result for C12U U26C A45G A56G C71U reads 0.18; that for A13G A18U U43A U69A U80A, 1.14; that for C12U A18G U26A U31C, 0.13. The result for A13G A18G U41A A56G U80C reads 0.45; that for C12U U26C A45U U80C, 0.4; that for A13G C14A A15G, 0.81. As for A13C C34A C44A U74C, the self-cleavage turned out to be 0.24. Take C12A U41C U60C: the self-cleavage turned out to be 0.69.

Regarding C12U U41C U66C U72C U74G A75G, the self-cleavage came to 0.94.

On to C12U A13G A35G A47G U67G U80C, for which the self-cleavage worked out at 0.47. The value for A13G A21G A56G C59U U67C was 0.14; that for C12A U26A C40G U43A A57G A65G was 0.08; that for A13G A28U G55A U78C was 0.24. For the variant A13G A20G A28G G33U U67C A77G, the self-cleavage worked out at 0. The value for A13C A20C C39G A45U was 0.15; that for A13G A18G A35U A45G A47U was 0.17; that for C12U A15U C29U A35G was 0.59.

C12U A45U G53A U60A: the self-cleavage came out at 1.25.

C12U U43A U54A U60C: the self-cleavage was found to be 1.05. The value for A13G A20G A45G U78A was 0.55. For A13G A28G A57G, the self-cleavage worked out at 0.41. The value for C12G U41A A64G U66C U72A was 0.05. The result for A13G C23U U51C U66C U80C reads 0.1. The value for A13G A15U A45U U76C was 0.42; that for A13G A15G U25C U80C was 0.51; that for A13C A15U U49C A77G was 0.12.

A13G C38G U48C U80C: the self-cleavage amounted to 0.1.

Turning to C12U A15G G33A, the self-cleavage was 0.05.

As to C12U A18U U54C, the self-cleavage stood at 0.49. The result for A13C A15G A18U U43C U51C U69C reads 0.09. As to A13G A20U U69C U80C, the self-cleavage turned out to be 0.1. The value for C12G C17G U25C U80C was 0.44; that for A13G A28G A77U was 0.46; that for A13G A20G U26C U41A U60A U69C was 0.04.

As for A13G A15G U26A, the self-cleavage amounted to 0.38.

Take A13C G22A C23U U25C A77U U78C: the self-cleavage is 0.09. The value for A13G A47G U51A A57G A65G was 0.18.

As for A13G A56G U72A, the self-cleavage was determined as 0.25.

For C12G A18U A57G U80C, the self-cleavage was 0.16.

Take A13G A21U U31C C39A: the self-cleavage is 0.14. The result for A13G A28U G63U A75U reads 0.59; that for A13C A45G U51A A56G G63A A75U, 0.27. The result for A13C U26C A57G A64U U67G reads 0.2; that for A13G A18U A20G U31A U60C U74A, 0.06.

Regarding A13G C14A A20G G24U U31A C38U, the self-cleavage worked out at 0.23.

For the variant A13C U43A G53A U72C, the self-cleavage turned out to be 1.1.

With A13G A15G U51A U54A U67C, the self-cleavage was determined as 0.11.

C12G U41G U43C U54C: the self-cleavage turned out to be 0.15.

As to A13G C23U U41A, the self-cleavage came to 0.13.

Turning to C12A C17G A20C A28U, the self-cleavage worked out at 0.28.

C12U U25C A28U U41A U51A U72C: the self-cleavage came to 0.14.

As to C12A G22C U67A, the self-cleavage is 0.13. Turning to C12G A18G U54C G73A, the self-cleavage came out at 0.57. The value for A13C G42C U60C was 0.08; that for C12U A35G A64U U66C was 0.21. Consider C12A A20U C23U C44A U54C U66C, for which the self-cleavage was determined as 0.06. The result for A13C C38U A45G reads 0.26; that for A13G A18G G33U A35C U48C A77U, 0.18. The value for A13G A15U U41A C62A was 0.18; that for A13G C32U U41A U67C A75U was 0.06; that for A13G A35G A57U was 0.49. The result for C12U U31C A35G U43C A57G U69C reads 0.09.

For the variant A13G A18G A21G U26C U41C, the self-cleavage came to 0.85. The result for A13G A18G U41C U54C U74C A75G reads 0.17. Take A13G A15G U25A G33A U67A U80A: the self-cleavage amounted to 0.26. The result for A13G A20G A21G U51C reads 0.07. Take A13G C29U G33A U49C U60A: the self-cleavage amounted to 0.07. The value for A13G C27A G33A A56U was 0.09. The result for A13G A15G A20U A47U U54G reads 0.3; that for A13G A15G U78C, 0.29; that for A13G A21G A35G U67C U69G, 0.14. The result for A13G C23U U41A A64U U69C reads 0.14; that for A13C A15G C37A A65G U74C, 0.19.

As for A13G A15U C38U U58C U60C, the self-cleavage is 0.1. The result for C12U A15U C17U U67C reads 0.06. On to A13C A28U U41A, for which the self-cleavage came out at 0.27. Take A13G A18G C29U C37U A56G A64G U72C: the self-cleavage was determined as 0.1. The value for A13G A28G C38U was 0.27. As for A13G A56G U66C, the self-cleavage came to 0.06. Consider A13G A45G U54C, for which the self-cleavage was found to be 0.74. The result for C12U A15G U67C U72C reads 0.31. With C12U A28C U51A, the self-cleavage amounted to 0.82. In the case of A13G A18U A21G U49A U54C, the self-cleavage was 0.04. The value for C12U U41C A45G A47U C68G was 0.15; that for C12U A13U A45U was 1.05. The value for A13G A20G U31G was 0.31; that for C12U A20G A47G was 0.74; that for A13C A35U C40A A45C A56G was 0.12. The value for A13G A20G G24A U43A U51A A65G was 0.15; that for C12U C14U U31A was 1.15. Turning to C12A C40U U54C, the self-cleavage was determined as 0.74. The value for A13G A20G C23U U26C U41A was 0.36; that for A13G A45G U72A was 0.43; that for A13G A20G A47G G55U was 0.48.
